± gives the standard deviation. The entries are a selection whose mix differs from that of the whole data set.
Test system: MIWI (PIWIL1) piRISC loaded with piRNA #1 (30 nt)
Assay: pre-steady-state target cleavage rate (min^-1); MIWI and MILI are mouse PIWI proteins and EfPiwi is from a freshwater sponge; tags in brackets are library labels; higher = faster piRNA-guided slicing of the target
Details: guide: piRNA #1 5'p-UGAGGUAGUAGGUUGUAUAGUAUCCAGAGG; auxiliary factor: 500 nM mouse GTSF1
In short: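 A transcribed, DNA-blocked target RNA library (0.1 nM) and 1 nM active affinity-purified piRISC bearing one synthetic guide were incubated in HEPES–potassium acetate buffer at 33 °C for 0–8 or 0–960 min, either with or without 500 nM GTSF1 partner protein. Uncleaved targets were sequenced, normalised to depth and to weakly complementary targets, and pooled over three trials, with k3 capped at 0.0001 min^-1. The pre-steady-state cleavage rate was derived with a burst-and-steady-state fit.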

Sequence	pre-steady-state target cleavage rate
GGAGACCAUACUAUACAACCUACAACCUGA	0.262 ± 0.047
GCUCUGGAUACUAUACAACCAACUACCUGA	0.0952 ± 0.013
GGAGACCUUACUAUACAGCCUACUACCUCA	0.421 ± 0.023
CCUCUGGCUACUAUACAACCUACUACCUCA	2.25 ± 0.11
GGAGUGGAAACUAUACAACCUUCUACCUCA	0.594 ± 0.031
GGAGACGAUAGUAUACAACCUACUACCACA	0.78 ± 0.093
GGAGACCUUACUUUACAACCUAGUACCUCA	0.283 ± 0.038
CCUCUGGAUACUAUACAACCUUCUUCCUCA	0.333 ± 0.031
GGAGUGGUUACUAUACAACCUAGUACCUCA	0.371 ± 0.05
GGUCUGGAUACUUUACAACCAACUACCUCA	0.0818 ± 0.0078
GGUCUGGAUACUAUUCAACCUACUACGUCA	0.363 ± 0.038
GGUCUGGAAACUAUACAUCCUACUACCUCA	1.57 ± 0.087
GGUCUGAAUACUAUACAACCUACUACCUCA	1.8 ± 0.097
GGAGACCUAACUAUACAACCUACUACCCCA	0.867 ± 0.099
GGAGUGGAUACUAUACAACCUUGAACCUCA	0.00314 ± 0.002
GGACUGAAUACUAUACAACCUACUACCUCA	1.67 ± 0.11
GGUCUGGAUGACUAUACAACCUACUACCUCA	1.16 ± 0.099
GGACUGGAUACUAUACAACCUACUUCCUCA	0.0088 ± 0.0024
GGUCUGGAUACUAUACAUCCUACUAGCUCA	0.31 ± 0.038
GGAGACCUAUGUAUAUAACCUACUACCUCA	0.126 ± 0.015

Sequence	pre-steady-state target cleavage rate
GGACUGGAAACUAUACAACCUACUUCCUCA	0.00362 ± 0.0025
GGACUGGAUACAAUACUACCUACUACCUCA	1.02 ± 0.12
GGACUGGAUACUAUACAACCUACUAACUCA	0.0689 ± 0.013
GGACAGGAUACUAUAGAACCUACUACCUCA	1.45 ± 0.083
GGAGUGGAUACUAUACAACCUACUACUCUCA	0.854 ± 0.053
GGUCUGGAUACUAUACAACUACUACCUCA	0.438 ± 0.042
GGAGUGGAUAGUAUACAACCUACUACGUCA	0.227 ± 0.028
GGAGAGGGAUACUAUACAACCUACUACCUCA	1.31 ± 0.063
CCUCUGGAUACUAUACAACCUACUACCGUCA	1.29 ± 0.084
GGAGACCUAUGAUAACAACCUACUACCAGA	< 0.0001
GGACUGGAUACUAUAUCAACCUACUACCUCA	0.435 ± 0.1
GGAGACCAUACUAACAACCUACUACCUCA	0.502 ± 0.046
CCUCUGGAUACUAUACAACCUACUAGCUGA	0.308 ± 0.046
GGAGACGAUACUAUACAACCUACUACCACA	1.15 ± 0.063
CCUCUGCAUACUAUACAACGUACUACCUCA	1.43 ± 0.086
GGAGACCAUUCUAUACAACCUACUACCUGA	0.806 ± 0.078
GGAGACGAUACUAACAACCUACUACCUCA	1.35 ± 0.094
CCUCUGGAUACUAUACAACCUCUACCUCA	0.0145 ± 0.0051
GGAGACCAUACUAUACAACCUACUACAUCA	1.35 ± 0.072
GCUCUGGAUACUAUACAACACUACUACCUCA	0.00578 ± 0.0038
